# Test results published in the supplement of paper PMC8728848.
# The list shows a part of the results.
# Legend:
# Assay in all cases: glycan array binding signal (z-score within array); higher = stronger binding
# Settings in all cases: glycan notation: IUPAC condensed, linker removed
# [1] = target: Fuc(a1-2)[Gal(a1-3)]Gal(b1-4)GlcNAc(b1-2)Man(a1-3)[Fuc(a1-2)[Gal(a1-3)]Gal(b1-4)GlcNAc(b1-2)Man(a1-6)]Man(b1-4)GlcNAc(b1-4)GlcNAc
# Summary of the method: (§1)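 Glycan array binding is given as a within-array Z-score, which can be read as non-binding when negative. The arrays, 3228 of them, came from the Consortium for Functional Glycomics database and were retained only where the protein sequence was available. Z-scores were averaged across arrays of the same protein sequence at different concentrations or buffers and across linkers.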
# [2] = target: Fuc(a1-2)[Gal(a1-3)]Gal(b1-4)GlcNAc(b1-2)Man(a1-3)[Fuc(a1-2)[Gal(a1-3)]Gal(b1-4)GlcNAc(b1-2)Man(a1-6)]Man(b1-4)GlcNAc(b1-4)[Fuc(a1-6)]GlcNAc
# Summary of the method: as §1
# [3] = target: Fuc(a1-2)[Gal(a1-3)]Gal(b1-4)GlcNAc(b1-3)GalNAc
# Summary of the method: as §1
# [4] = target: Fuc(a1-2)[Gal(a1-3)]Gal(b1-4)GlcNAc(b1-3)[Fuc(a1-2)[Gal(a1-3)]Gal(b1-4)GlcNAc(b1-6)]GalNAc
# Summary of the method: as §1
# [5] = target: Fuc(a1-2)[Gal(a1-3)]Gal(b1-4)GlcNAc(b1-6)GalNAc
# Summary of the method: as §1
# [6] = target: Fuc(a1-2)[Gal(a1-3)]Gal(b1-4)[Fuc(a1-3)]Glc
# Summary of the method: as §1
# [7] = target: Fuc(a1-2)[Gal(a1-3)]Gal(b1-4)[Fuc(a1-3)]GlcNAc
# Summary of the method: as §1
# [8] = target: Fuc(a1-2)[Gal(a1-3)]Gal(b1-4)[Fuc(a1-3)]GlcNAc(b1-3)GalNAc
# Summary of the method: as §1
# [9] = target: Fuc(a1-2)[Gal(a1-4)]Gal(b1-4)GlcNAc
# Summary of the method: as §1
# [10] = target: Fuc(a1-2)[GalNAc(a1-3)]Gal
# Summary of the method: as §1
# [11] = target: Fuc(a1-2)[GalNAc(a1-3)]Gal(b1-3)GalNAc(a1-3)[Fuc(a1-2)]Gal(b1-4)GlcNAc
# Summary of the method: as §1
# [12] = target: Fuc(a1-2)[GalNAc(a1-3)]Gal(b1-3)GalNAc(b1-3)Gal(a1-4)Gal(b1-4)Glc
# Summary of the method: as §1
# [13] = target: Fuc(a1-2)[GalNAc(a1-3)]Gal(b1-3)GlcNAc
# Summary of the method: as §1
# [14] = target: Fuc(a1-2)[GalNAc(a1-3)]Gal(b1-3)GlcNAc(b1-2)Man(a1-3)[Fuc(a1-2)[GalNAc(a1-3)]Gal(b1-3)GlcNAc(b1-2)Man(a1-6)]Man(b1-4)GlcNAc(b1-4)GlcNAc
# Summary of the method: as §1
# [15] = target: Fuc(a1-2)[GalNAc(a1-3)]Gal(b1-3)GlcNAc(b1-2)Man(a1-3)[Fuc(a1-2)[GalNAc(a1-3)]Gal(b1-3)GlcNAc(b1-2)Man(a1-6)]Man(b1-4)GlcNAc(b1-4)[Fuc(a1-6)]GlcNAc
# Summary of the method: as §1
# [16] = target: Fuc(a1-2)[GalNAc(a1-3)]Gal(b1-3)GlcNAc(b1-3)GalNAc
# Summary of the method: as §1
# [17] = target: Fuc(a1-2)[GalNAc(a1-3)]Gal(b1-3)GlcNAc(b1-6)GalNAc
# Summary of the method: as §1
# [18] = target: Fuc(a1-2)[GalNAc(a1-3)]Gal(b1-4)Glc
# Summary of the method: as §1
# [19] = target: Fuc(a1-2)[GalNAc(a1-3)]Gal(b1-4)GlcNAc
# Summary of the method: as §1
# [20] = target: Fuc(a1-2)[GalNAc(a1-3)]Gal(b1-4)GlcNAc(b1-2)Man
# Summary of the method: as §1
# [21] = target: Fuc(a1-2)[GalNAc(a1-3)]Gal(b1-4)GlcNAc(b1-2)Man(a1-3)[Fuc(a1-2)[GalNAc(a1-3)]Gal(b1-4)GlcNAc(b1-2)Man(a1-6)]Man(b1-4)GlcNAc(b1-4)GlcNAc
# Summary of the method: as §1
# [22] = target: Fuc(a1-2)[GalNAc(a1-3)]Gal(b1-4)GlcNAc(b1-2)Man(a1-3)[Fuc(a1-2)[GalNAc(a1-3)]Gal(b1-4)GlcNAc(b1-2)Man(a1-6)]Man(b1-4)GlcNAc(b1-4)[Fuc(a1-6)]GlcNAc
# Summary of the method: as §1
# [23] = target: Fuc(a1-2)[GalNAc(a1-3)]Gal(b1-4)GlcNAc(b1-3)Gal(b1-4)GlcNAc
# Summary of the method: as §1
# [24] = target: Fuc(a1-2)[GalNAc(a1-3)]Gal(b1-4)GlcNAc(b1-3)Gal(b1-4)GlcNAc(b1-3)Gal(b1-4)GlcNAc
# Summary of the method: as §1
# [25] = target: Fuc(a1-2)[GalNAc(a1-3)]Gal(b1-4)GlcNAc(b1-3)GalNAc
# Summary of the method: as §1
# [26] = target: Fuc(a1-2)[GalNAc(a1-3)]Gal(b1-4)GlcNAc(b1-3)[Fuc(a1-2)[GalNAc(a1-3)]Gal(b1-4)GlcNAc(b1-6)]GalNAc
# Summary of the method: as §1
# [27] = target: Fuc(a1-2)[GalNAc(a1-3)]Gal(b1-4)GlcNAc(b1-6)GalNAc
# Summary of the method: as §1
# [28] = target: Fuc(a1-2)[GalNAc(a1-3)]Gal(b1-4)[Fuc(a1-3)]GlcNAc
# Summary of the method: as §1
# [29] = target: Fuc(a1-2)[GalNAc(a1-3)]Gal(b1-4)[Fuc(a1-3)]GlcNAc(b1-3)GalNAc
# Summary of the method: as §1
# [30] = target: Fuc(a1-2)[GalNAc(a1-4)]Gal(b1-4)GlcNAc
# Summary of the method: as §1
# [31] = target: Fuc(a1-2)[GalNAc(b1-3)]Gal
# Summary of the method: as §1
# Fuc(a1-3)GlcNAc = target: Fuc(a1-3)GlcNAc
# Summary of the method: as §1
# [32] = target: Fuc(a1-3)[Gal(b1-4)]Glc6S
# Summary of the method: as §1
# [33] = target: Fuc(a1-3)[Gal(b1-4)]GlcNAc
# Summary of the method: as §1
# [34] = target: Fuc(a1-3)[Gal(b1-4)]GlcNAc(b1-2)Man
# Summary of the method: as §1
# [35] = target: Fuc(a1-3)[Gal(b1-4)]GlcNAc(b1-2)Man(a1-3)[Fuc(a1-3)[Gal(b1-4)]GlcNAc(b1-2)Man(a1-6)]Man(b1-4)GlcNAc(b1-4)GlcNAc
# Summary of the method: as §1
# [36] = target: Fuc(a1-3)[Gal(b1-4)]GlcNAc(b1-2)Man(a1-3)[Fuc(a1-3)[Gal(b1-4)]GlcNAc(b1-2)Man(a1-6)]Man(b1-4)GlcNAc(b1-4)[Fuc(a1-6)]GlcNAc
# Summary of the method: as §1
# [37] = target: Fuc(a1-3)[Gal(b1-4)]GlcNAc(b1-3)Gal(b1-3)[Fuc(a1-4)]GlcNAc
# Summary of the method: as §1
# [38] = target: Fuc(a1-3)[Gal(b1-4)]GlcNAc(b1-3)Gal(b1-4)[Fuc(a1-3)]GlcNAc
# Summary of the method: as §1
# [39] = target: Fuc(a1-3)[Gal(b1-4)]GlcNAc(b1-3)Gal(b1-4)[Fuc(a1-3)]GlcNAc(b1-3)Gal(b1-4)[Fuc(a1-3)]GlcNAc
# Summary of the method: as §1
# [40] = target: Fuc(a1-3)[Gal(b1-4)]GlcNAc(b1-3)GalNAc
# Summary of the method: as §1
# [41] = target: Fuc(a1-3)[Gal(b1-4)]GlcNAc(b1-6)GalNAc
# Summary of the method: as §1
# [42] = target: Fuc(a1-3)[Gal(b1-4)]GlcNAc(b1-6)[Gal(b1-3)GlcNAc(b1-3)]Gal(b1-4)Glc
# Summary of the method: as §1
# [43] = target: Fuc(a1-3)[Gal(b1-4)]GlcNAc6S
# Summary of the method: as §1
# [44] = target: Fuc(a1-3)[Gal3S(b1-4)]Glc
# Summary of the method: as §1
binder,measurement,setting,value
SP16664B-bot-474-25-474 (Bacteroides ovatus) (protein) CEEDIEIGNKIDESSYLASTQLSGLLLDENTNKNSSVIELRNNEYSTNVVFRLSKLPQKGVDVQIAVEESYAAIYNTIHETDFEVFPAANVKIANNGTFVLAPDDKVTPSVKVTLTAFDGMEEDKTYIVPLTVTSSTEGVTFTETSKHMVLLVQDYRNKPNTNKGEDAVQTVLYFEVNDTNPLNALEFLTESGKYFFDHIVLFAANINWDPEKQRVYLANNENVQFLLDNNDKYLQPLRKAGMKIIISILGNHDEAGVAQLSDMGAREFARELAAYCRAYNLDGVAFDDEYSNSPDLSNPWLASPSAYAGSRLMYECKAVMPEKIVSLYNLGNMYSSSLQVIDGIEPGQYCDYAVADYGGAAGPGTGMTLKQCAGMSIELRRGSGNSSESTARSRKEAGYGYYMFFALDPSLYGSQVYRCQSVCKGLYDETLVYPSYYYKKNSTEREAIN,glycan array binding signal (z-score),[1],0.124
same,glycan array binding signal (z-score),[2],-0.061
same,glycan array binding signal (z-score),[3],0.116
same,glycan array binding signal (z-score),[4],0.402
same,glycan array binding signal (z-score),[5],-0.107
same,glycan array binding signal (z-score),[6],-0.571
same,glycan array binding signal (z-score),[7],-0.441
same,glycan array binding signal (z-score),[8],-0.321
same,glycan array binding signal (z-score),[9],0.085
same,glycan array binding signal (z-score),[10],-0.112
same,glycan array binding signal (z-score),[11],-0.276
same,glycan array binding signal (z-score),[12],-0.296
same,glycan array binding signal (z-score),[13],-0.185
same,glycan array binding signal (z-score),[14],0.307
same,glycan array binding signal (z-score),[15],-0.15
same,glycan array binding signal (z-score),[16],0.153
same,glycan array binding signal (z-score),[17],-0.622
same,glycan array binding signal (z-score),[18],-0.329
same,glycan array binding signal (z-score),[19],-0.242
same,glycan array binding signal (z-score),[20],-0.388
same,glycan array binding signal (z-score),[21],0.635
same,glycan array binding signal (z-score),[22],1.16
same,glycan array binding signal (z-score),[23],-0.402
same,glycan array binding signal (z-score),[24],-0.018
same,glycan array binding signal (z-score),[25],-0.33
same,glycan array binding signal (z-score),[26],-0.247
same,glycan array binding signal (z-score),[27],-0.035
same,glycan array binding signal (z-score),[28],-0.073
same,glycan array binding signal (z-score),[29],0.228
same,glycan array binding signal (z-score),[30],-0.449
same,glycan array binding signal (z-score),[31],-0.453
same,glycan array binding signal (z-score),Fuc(a1-3)GlcNAc,-0.354
same,glycan array binding signal (z-score),[32],-0.329
same,glycan array binding signal (z-score),[33],-0.204
same,glycan array binding signal (z-score),[34],0.2
same,glycan array binding signal (z-score),[35],2.22
same,glycan array binding signal (z-score),[36],0.464
same,glycan array binding signal (z-score),[37],0.124
same,glycan array binding signal (z-score),[38],0.626
same,glycan array binding signal (z-score),[39],0.096
same,glycan array binding signal (z-score),[40],0.582
same,glycan array binding signal (z-score),[41],0.261
same,glycan array binding signal (z-score),[42],0.125
same,glycan array binding signal (z-score),[43],-0.473
same,glycan array binding signal (z-score),[44],-0.555
